Experimental data as given in PubChem BioAssay AID1745845 (National Center for Advancing Translational Sciences (NCATS), 2022).
Hit rate of the full screen: of about 360,000 compounds, about 2,600 (0.72%) were called active. This list was built around the results that the source calls inconclusive (neither active nor inactive); the mix of calls is not that of the screen. Calls come from the whole dose curve; as a rule, active = well fitted inhibition curve with a large enough effect; inconclusive = small, poorly fitted or top-dose-only effect; inactive = no such curve, though single readings can be large or run the other way. Potencies of inconclusive entries are doubtful fits and often do not repeat.

experiment: Primary qHTS for Inhibitors of ATXN expression; conditions: HEK-293 ATXN2-luciferase reporter, luminescence, 24 h; activity change, negative = inhibition: at 57 µM (top of the series); note: nearly all actives have a fitted effect of over 55% in size
Method in brief: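 ATXN2-luciferase reporter cells (luciferase flanked by upstream and downstream ATXN2 gene portions) were treated 24 h at 37 °C with compounds at up to 57 uM. SteadyGlo luminescence gave expression; GF-AFC fluorescence gave viability.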
% is set by controls: 0 for no effect and ±100 for the full control effect; potency is the fitted concentration of half-maximal effect; tags give direction and shape of the fitted curve.

SMILES | Potency | activity change, negative = inhibition
Cc1ccc2c(CC(=O)Nc3ccc(S(=O)(=O)N4CCCCC4)cc3)coc2c1C | inconclusive: 31.6 µM [inhibitor, partial curve, poor fit] | 
COc1cccc(CNC(=S)Nc2ccc(Cl)cc2C)c1 | inactive | 
CC(C)CC1C(=O)N(Cc2cn(CCC3OCCO3)nn2)CCS(=O)(=O)N1Cc1ccc(-c2ccc(F)cc2)cc1 (centres undefined) | inconclusive: 39.8 µM [inhibitor, single point] | 
Cc1ccc(CS(=O)(=O)c2ncc(Cl)c(C(=O)Nc3nnc(C(C)C)s3)n2)cc1 | inconclusive: 39.8 µM [inhibitor, single point] | 
CCOC(=O)COc1ccc(Br)cc1/C=C/c1[nH]c(=O)[nH]c(=O)c1[N+](=O)[O-] | inconclusive: 39.8 µM [inhibitor, single point] | 
Cc1cc([N+](=O)[O-])ccc1-c1ccc(/C=N/NC(=O)c2ccc(Br)o2)o1 | inconclusive: 28.2 µM [inhibitor, partial curve, poor fit] | 
CCc1ccc(C2c3c(-c4ccccc4O)n[nH]c3C(=O)N2Cc2cccnc2)cc1 (centres undefined) | inconclusive: 39.8 µM [inhibitor, single point] | 
CCOc1ccc(C(C)NC(=S)NC2CCCCC2)cc1 (centres undefined) | inconclusive: 37.7 µM [inhibitor, single point] | 
O=C(CCNS(=O)(=O)c1ccc2c(c1)CCN2C(=O)C1CC1)N1CCN(c2cccc(Cl)c2)CC1 | inconclusive: 39.8 µM [inhibitor, single point] | 
CC1CCCCC1NC(=O)/C(C#N)=C/C=C/c1ccccc1[N+](=O)[O-] (centres undefined) | active: 3.16 µM | 
CCCCC[C@H](C)N1C[C@@H](COCc2ccccc2)Oc2cc(N3CCC[C@H]3C(N)=O)ccc2S1(=O)=O | inconclusive: 39.8 µM [inhibitor, single point] | 
CCCCCCCN(c1ccccc1)[C@@H]1C[C@H]2CCCC(=O)N3CC[C@@H](C1)[C@@H]23 | inconclusive: 15.8 µM [inhibitor, partial curve, poor fit] | 
Cc1ccc(-c2cc(-c3ccccc3Cl)c(C#N)c(N)n2)o1 | inactive | 
Cc1ccc(OCCCC(=O)Nc2ccc3c(c2)OCCO3)cc1 | inconclusive: 17.8 µM [inhibitor, partial curve, poor fit] | 
COc1ccc(-c2cnn3c(N)c(S(=O)(=O)c4ccccc4)cnc23)cc1 | inactive | 
COc1ccc(CCNC(=O)CN(c2ccccc2)S(=O)(=O)N(C)C)cc1OC | inactive | 
CCSc1nc2ccccc2c(OCc2ccc(Cl)cc2)c1C(=O)OC | inactive | 
COc1ccc(Cl)cc1N1CCN(CCNC(=O)Nc2ccccc2C)CC1 | inconclusive: 20 µM [inhibitor, single point] | 
CN1/C(=C/c2cccc[n+]2C)Sc2ccccc21 | inconclusive: 7.94 µM [inhibitor, full curve] | 
NC(=O)c1cccc(Nc2nc(C(N)COCc3ccccc3)cs2)n1 (centres undefined) | inactive | 
CC(=O)Nc1cccc(-c2ccnc3c2CC(C)(C(=O)Nc2ccc(Cl)cc2)O3)c1 (centres undefined) | inconclusive: 28.2 µM [inhibitor, partial curve, poor fit] | 
Cn1c(CNc2ccccn2)c(C#N)c2ccccc21 | inactive | 
Cc1ccc([N+](=O)[O-])c(OCCCN2C(=O)NC(C)(C)C2=O)c1 | inconclusive: 18.9 µM [inhibitor, partial curve, poor fit] | 

SMILES | Potency | activity change, negative = inhibition
COc1cc2ccccc2cc1C(=O)OCC(=O)N(CC(C)C)c1c(N)n(Cc2ccccc2)c(=O)[nH]c1=O | inactive | 
CCC(C)NCCOCCOc1ccc(Cl)cc1Br (centres undefined) | inactive | 
COc1cc(C(CCN2CCN(c3ccccc3)CC2)c2c(OC)cc(OC)c3ccc(=O)oc23)cc(OC)c1OC (centres undefined) | inactive | 
O=C(c1ccccc1)N(C1=NCCCCS1)c1ccccc1 | inactive | 
COC(CCN(C)C)(c1ccccc1)c1ccccc1 | inactive | 
O=C(CSC1=NCCN1)Nc1cccc(C(F)(F)F)c1 | inactive | 
C/C(=N\NC(=O)c1ccncc1)c1cccc(NC(=O)c2ccc(C(C)(C)C)cc2)c1 | inconclusive: 39.8 µM [inhibitor, single point] | 
COc1ccc(C(=O)NCCn2cc(SCc3cccc(F)c3)c3ccccc32)cc1OC | active: 17.8 µM | 
O=C(Nc1ncc(-c2cc(C(F)F)nn2-c2c(Cl)cccc2Cl)s1)C1CC1 | inconclusive: 0.273 µM [inhibitor, partial curve, poor fit] | 
Cc1noc(C)c1COc1ccc(CC(=O)NCc2ccccc2)cc1 | inconclusive: 4.23 µM [inhibitor, partial curve, poor fit] | 
COCCCN(Cc1ccco1)C(=O)c1cc2c(s1)-c1ccccc1OC2 | inconclusive: 31.6 µM [inhibitor, single point] | 
O=C1CC(Sc2nnnn2-c2ccccc2)C(=O)N1c1cccc(Cl)c1 (centres undefined) | inconclusive: 28.2 µM [inhibitor, single point] | 
Cc1ccc(C(=O)Nc2ccc3c(c2)CCC3)cc1 | inconclusive: 15.8 µM [inhibitor, single point] | 
C=C(C)Cn1c(SCC(=O)Nc2ccccc2C)nc2sc3c(c2c1=O)CCCC3 | inactive | 
CC1CCN(C(=O)c2ccc3c(c2)N(Cc2ccccc2F)C(=O)c2ccccc2S3(=O)=O)CC1 | inactive | 
CC(C)COc1ccc(C(=O)Nc2ccc(NC(=O)c3ccco3)c(Cl)c2)cc1 | inconclusive: 31.6 µM [inhibitor, single point] | 
COc1ccc(C(=S)N2CCOCC2)cc1OC(=O)c1ccc([N+](=O)[O-])cc1[N+](=O)[O-] | inactive | 
O=C(CSc1ncnc2c1oc1ccccc12)Nc1nc2ccccc2s1 | inconclusive: 28.2 µM [inhibitor, single point] | 
COc1ccc(NC(=O)c2cc3c(Cl)nc4ccccc4c3s2)cc1OC | inconclusive: 8.91 µM [inhibitor, partial curve, poor fit] | 
COCCNc1nc(-c2ccccc2CO)c2sc(-c3ccccc3)cc2n1 | inactive | 
CCn1c2c(c(=N)c3c1CCC3)CCC2 |  | inactive: -22.9% [at 11.3 µM]
Cc1ccc(/C=N/NC(=O)c2ccccc2OCc2cccc(Br)c2)o1 | inconclusive: 37.7 µM [inhibitor, single point] | 
CN(CC(=O)Nc1cccc(S(=O)(=O)N2CCCC2)c1)CC(=O)Nc1ccc(Cl)c(C(F)(F)F)c1 | inconclusive: 39.8 µM [inhibitor, single point] | 

SMILES | Potency | activity change, negative = inhibition
CCCN1CCN(CCCNC(=O)c2cc3c(Cl)nc4ccccc4c3s2)CC1 | inconclusive: 25.1 µM [inhibitor, single point] | 
CCOc1ccc(S(=O)(=O)NCCc2csc(-c3ccc(Cl)cc3)n2)cc1 | inconclusive: 17.8 µM [inhibitor, partial curve, poor fit] | 
CC(C)CCNC(=O)CN1C(=O)CCn2nc(-c3cn(C)c4ccccc34)cc21 | inactive | 
COc1ccc(C(=O)N[C@H](C(=O)OCn2nnc3ccccc3c2=O)C(C)C)cc1 | inactive | 
CCOc1ccc(CNC(=O)c2ccc(Sc3ccc(Cl)cc3)c(NC(C)=O)c2)cc1 | inconclusive: 12.6 µM [inhibitor, partial curve, poor fit] | 
O=C(OCc1nc2ccsc2c(=O)[nH]1)c1ccc(Cl)s1 | inactive | 
Cc1ccc(C(=O)N/N=C/c2ccc([N+](=O)[O-])s2)cc1 | active: 2.24 µM | 
CCN(CC)CCNC(CC(=O)Nc1ccc(Cl)cc1Cl)C(=O)O (centres undefined) | inactive | 
COc1ccc(CC(N)c2csc(NC(=O)Nc3ccc(OC)cc3)n2)cc1 (centres undefined) | inconclusive: 39.8 µM [inhibitor, single point] | 
CCCCC1CCC(C(=O)N2CC(=O)Nc3ccc(F)cc3C2c2ccc(F)cc2)CC1 (centres undefined) | inconclusive: 39.8 µM [inhibitor, partial curve, poor fit] | 
CC(C)(C)c1ccc(OCc2ccc(C(=O)N/N=C/c3ccc(O)c(O)c3)cc2)cc1 | inconclusive: 37.7 µM [inhibitor, single point] | 
c1ccc2c(c1)Cn1nc(Cc3nc4c(s3)CCCC4)nc1-2 | inactive | 
COC1C=CC=C(C)C(=O)NC2=CC(=O)C(N)=C(CC(C)CC(OC)C(O)C(C)C=C(C)C1OC(N)=O)C2=O (centres undefined) | active: 0.238 µM | 
Cc1ccc(CCNC(=O)c2coc3nc4ccccc4nc23)cc1 | inactive | 
O=C(NCCCN1CCOCC1)c1cn(-c2ccccc2)nc1-c1ccc(Br)cc1 | inconclusive: 20 µM [inhibitor, partial curve, poor fit] | 
CCc1ccccc1Nc1cc(C(=O)NCc2ccc(C)cc2)c2ccccc2n1 | inactive | 
CCOC(=O)c1c(NC(=O)COC(=O)c2ccc(C)s2)sc2c1CC(C)(C)NC2(C)C | inactive | 
CCN1C(=O)/C(=C\C=C\c2ccccc2[N+](=O)[O-])SC1=S | inactive | 
CCCCCCCCN1C(=O)[C@H](CC(=O)N2CCSCC2)C[C@@]2(C(=O)OC)CCCCC=C12 | inconclusive: 25.1 µM [inhibitor, single point] | 
C#CC[N+](C)(C)CCCCCCCCCC | inconclusive: 28.2 µM [inhibitor, single point] | 
NCCNc1ccc(C(=O)N2c3ccccc3Sc3ccccc32)cc1[N+](=O)[O-] | inconclusive: 28.2 µM [inhibitor, partial curve, poor fit] | 
CCOC(=O)c1cnc2c(OC)cccc2c1N1CCN(c2ccccn2)CC1 | inconclusive: 23.8 µM [inhibitor, partial curve, poor fit] | 
COc1ccc(OC(F)(F)F)cc1CC1(C)C(=O)Nc2c(Cl)ccc(Cl)c21 (centres undefined) | inconclusive: 35.5 µM [inhibitor, single point] | 
